The supplement of paper PMC8728848
The other results are listed elsewhere or left out.

Key:
Experiment in all cases: glycan array binding signal (z-score within array); higher = stronger binding
Conditions in all cases: glycan notation: IUPAC condensed, linker removed
[1] = biological target: Kdn(a2-3)Gal(b1-4)Glc
In short: (§1)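 Glycan array data were curated from 3228 arrays in the Consortium for Functional Glycomics database and kept only where the protein sequence was available. Glycan names were converted to IUPAC-condensed notation, and columns mapping to the same glycan were averaged. The binding signal is a within-array Z-score, averaged across arrays of the same protein sequence at different concentrations or buffers and across linkers. Negative Z-scores can be read as non-binding.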

[2] = biological target: Kdn(a2-3)Gal(b1-4)GlcNAc
In short: as §1

[3] = biological target: Kdn(a2-3)Gal(b1-4)[Fuc(a1-3)]GlcNAc
In short: as §1

[4] = biological target: Kdn(a2-6)Gal(b1-4)GlcNAc
In short: as §1

[5] = biological target: Man(a1-2)Man(a1-2)Man(a1-3)Man
In short: as §1

[6] = biological target: Man(a1-2)Man(a1-2)Man(a1-6)[Man(a1-3)]Man
In short: as §1

[7] = biological target: Man(a1-2)Man(a1-3)Man
In short: as §1

[8] = biological target: Man(a1-2)Man(a1-3)[Man(a1-2)Man(a1-6)]Man
In short: as §1

[9] = biological target: Man(a1-2)Man(a1-3)[Man(a1-2)Man(a1-6)]Man(a1-6)[Man(a1-2)Man(a1-2)Man(a1-3)]Man
In short: as §1

[10] = biological target: Man(a1-2)Man(a1-3)[Man(a1-2)Man(a1-6)]Man(a1-6)[Man(a1-2)Man(a1-2)Man(a1-3)]Man(b1-4)GlcNAc(b1-4)GlcNAc
In short: as §1

[11] = biological target: Man(a1-2)Man(a1-3)[Man(a1-6)]Man(a1-6)[Man(a1-2)Man(a1-3)]Man(b1-4)GlcNAc(b1-4)GlcNAc
In short: as §1

[12] = biological target: Man(a1-2)Man(a1-6)[Man(a1-3)]Man(a1-6)[Man(a1-2)Man(a1-2)Man(a1-3)]Man
In short: as §1

[13] = biological target: Man(a1-2)Man(a1-6)[Man(a1-3)]Man(a1-6)[Man(a1-2)Man(a1-2)Man(a1-3)]Man(b1-4)GlcNAc(b1-4)GlcNAc
In short: as §1

[14] = biological target: Man(a1-3)[Man(a1-6)]Man
In short: as §1

[15] = biological target: Man(a1-3)[Man(a1-6)]Man(a1-6)[Man(a1-2)Man(a1-3)]Man(b1-4)GlcNAc(b1-4)GlcNAc
In short: as §1

[16] = biological target: Man(a1-3)[Man(a1-6)]Man(a1-6)[Man(a1-3)]Man
In short: as §1

[17] = biological target: Man(a1-3)[Man(a1-6)]Man(a1-6)[Man(a1-3)]Man(b1-4)GlcNAc(b1-4)GlcNAc
In short: as §1

[18] = biological target: Man(a1-3)[Man(a1-6)]Man(b1-4)GlcNAc(b1-4)GlcNAc
In short: as §1

[19] = biological target: Man(a1-3)[Man(a1-6)]Man(b1-4)GlcNAc(b1-4)[Fuc(a1-6)]GlcNAc
In short: as §1

[20] = biological target: Man(a1-6)Man
In short: as §1

[21] = biological target: Man(b1-4)GlcNAc
In short: as §1

[22] = biological target: MurNAc(b1-4)GlcNAc
In short: as §1

[23] = biological target: Neu5Ac(a2-3)Gal
In short: as §1

[24] = biological target: Neu5Ac(a2-3)Gal(b1-3)GalNAc
In short: as §1

[25] = biological target: Neu5Ac(a2-3)Gal(b1-3)GalNAc(b1-3)Gal(a1-4)Gal(b1-4)Glc
In short: as §1

[26] = biological target: Neu5Ac(a2-3)Gal(b1-3)GalNAc(b1-4)[Neu5Ac(a2-3)]Gal(b1-4)Glc
In short: as §1

[27] = biological target: Neu5Ac(a2-3)Gal(b1-3)GalNAc(b1-4)[Neu5Ac(a2-8)Neu5Ac(a2-3)]Gal(b1-4)Glc
In short: as §1

[28] = biological target: Neu5Ac(a2-3)Gal(b1-3)GalNAc6S
In short: as §1

[29] = biological target: Neu5Ac(a2-3)Gal(b1-3)GlcNAc
In short: as §1

[30] = biological target: Neu5Ac(a2-3)Gal(b1-3)GlcNAc(b1-2)Man
In short: as §1

[31] = biological target: Neu5Ac(a2-3)Gal(b1-3)GlcNAc(b1-2)Man(a1-3)[GlcNAc(b1-4)][Neu5Ac(a2-3)Gal(b1-3)GlcNAc(b1-2)Man(a1-6)]Man(b1-4)GlcNAc(b1-4)GlcNAc
In short: as §1

[32] = biological target: Neu5Ac(a2-3)Gal(b1-3)GlcNAc(b1-2)Man(a1-3)[Neu5Ac(a2-3)Gal(b1-3)GlcNAc(b1-2)Man(a1-6)]Man(b1-4)GlcNAc(b1-4)GlcNAc
In short: as §1

[33] = biological target: Neu5Ac(a2-3)Gal(b1-3)GlcNAc(b1-3)Gal(b1-3)GlcNAc
In short: as §1

[34] = biological target: Neu5Ac(a2-3)Gal(b1-3)GlcNAc(b1-3)Gal(b1-4)GlcNAc
In short: as §1

[35] = biological target: Neu5Ac(a2-3)Gal(b1-3)GlcNAc(b1-3)GalNAc
In short: as §1

[36] = biological target: Neu5Ac(a2-3)Gal(b1-3)GlcNAc(b1-4)Gal(b1-4)Glc
In short: as §1

[37] = biological target: Neu5Ac(a2-3)Gal(b1-3)GlcNAc(b1-6)GalNAc
In short: as §1

[38] = biological target: Neu5Ac(a2-3)Gal(b1-3)GlcNAc6S
In short: as §1

B1: PX14375F-bfa-539-21-539 (Bacteroides fragilis) (protein)
chain: EDFLQKDPPSSPSQSVFWQKKSDFESALAGTYSVMYSGVFSQIMPCLDGLTDNAIVQHSEGTYGWAKTIAQGDLTPNQGGFVTDIYGNCYKGIARVHILMEQLDQYTGSDISADEKKFMLAQCKALRGYFYSWLYQCYKEVPVVTQSLDLNTMYQPKATRAEVLNRVMTDYDEAISELPDKLYSDSQTSGRFTVSAVKALKARILLFDAYDSNGKAISSKMEEVLTLLQSIKGYSLAARVRDNFISEKQLASPEIMFSVRFLRPNLTHSMDLYYGAWAVLDPTRNMVDAFECTDGKPWGESPLTVRPDESILYGNDDALKKAERAKMFMNRDRRLYESVNHSMMANFVDDGFKDEEVQVNESNNKGPTGFSALKYVQPTDVTPGYSTVSDADIVVLRYAHVLLMIAEAENEAHGATTTALNAINEVRTRSGQPAIEAGISQDDLRERIRNEWRIETCFEGLRYFQLKRWKLMDKRVNGVEDPAYPGYIKVYKPAFEFFPIPQSEIDKAGGVLKQDPAYE
glycan array binding signal (z-score) [1]: -0.445
glycan array binding signal (z-score) [2]: -0.831
glycan array binding signal (z-score) [3]: -0.558
glycan array binding signal (z-score) [4]: -0.206
glycan array binding signal (z-score) [5]: -0.844
glycan array binding signal (z-score) [6]: -0.687
glycan array binding signal (z-score) [7]: -0.201
glycan array binding signal (z-score) [8]: -0.626
glycan array binding signal (z-score) [9]: 0.01
glycan array binding signal (z-score) [10]: 0.35
glycan array binding signal (z-score) [11]: -0.236
glycan array binding signal (z-score) [12]: -0.318
glycan array binding signal (z-score) [13]: 0.057
glycan array binding signal (z-score) [14]: -0.656
glycan array binding signal (z-score) [15]: -0.266
glycan array binding signal (z-score) [16]: -0.3
glycan array binding signal (z-score) [17]: -0.28
glycan array binding signal (z-score) [18]: -0.605
glycan array binding signal (z-score) [19]: 0.184
glycan array binding signal (z-score) [20]: -0.641
glycan array binding signal (z-score) [21]: -0.448
glycan array binding signal (z-score) [22]: -0.015
glycan array binding signal (z-score) [23]: 0.06
glycan array binding signal (z-score) [24]: -0.199
glycan array binding signal (z-score) [25]: -0.715
glycan array binding signal (z-score) [26]: 0.409
glycan array binding signal (z-score) [27]: -0.099
glycan array binding signal (z-score) [28]: -0.73
glycan array binding signal (z-score) [29]: -0.665
glycan array binding signal (z-score) [30]: 0.584
glycan array binding signal (z-score) [31]: -0.276
glycan array binding signal (z-score) [32]: -0.682
glycan array binding signal (z-score) [33]: -0.815
glycan array binding signal (z-score) [34]: -0.567
glycan array binding signal (z-score) [35]: -0.172
glycan array binding signal (z-score) [36]: -0.468
glycan array binding signal (z-score) [37]: -0.238
glycan array binding signal (z-score) [38]: 1.15
